Assay results published in the supplement of paper PMC10126150.
Values marked as one replicate rest on one cluster of the flow cell; about a third of the high ones do not repeat.

The sequences below were run on ATP (assay: switch fluorescence ratio, 500 uM ATP over buffer (Cy3 cluster intensity, sum of 5 cycles each) (fold (ratio)); higher = stronger signal-on switching upon ATP binding; sequences stand for … in TCGTCGGCAGCGTCAGATGTGTATAAGAGACAGTTTTTTTTTTTTTTTTTTTTTTTTT…TC). Conditions: aptamer strand: ATP DNA aptamer (quencher-CACCTGGGGGAGTATTGCGGAGGAAGG + anchor), 100 nM annealed; ATP concentration: 500 uM; one replicate.
Outline: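 Clusters carrying Cy3-labelled switching strands on a modified Illumina MiSeq flow-cell were annealed to 100 nM quencher-labelled ATP aptamer and imaged in selection buffer. They were imaged again after 15 min with 500 uM ATP at 22 °C, over five buffer/ATP cycles with NaOH stripping and re-annealing in between. For each cluster, the fluorescence ratio is the summed Cy3 intensity of the target cycles divided by that of the buffer cycles, averaged per switch-domain sequence. Clusters outside 100-1000 RFU were left out.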
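Note: ATP exposure 15 min at 22 °C before imaging.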

| Sequence | switch fluorescence ratio |
| --- | --- |
| TACCTTTTAT | 1.04 |
| TACGACCCTC | 1.37 |
| TACGACTCAA | 5.48 |
| TACGAGAACA | 1.02 |
| TACGAGTCCC | 0.998 |
| TACGCACCGT | 1.61 |
| TACGCAGAAC | 3.57 |
| TACGCCAAAT | 1.16 |
| TACGCCCCTT | 1.72 |
| TACGCCTGAG | 1.04 |
| TACGCCTTAG | 0.989 |
| TACGCGAGGT | 1.08 |
| TACGCTGGCA | 1.42 |
| TACGCTTTCG | 1.08 |
| TACGGACTGT | 1.16 |
| TACGGATCAG | 0.962 |
| TACGGCAGGT | 1.04 |
| TACGGCCATT | 1.02 |
| TACGGGACGT | 0.968 |
| TACGGGACTG | 1.03 |
| TACGGGGAAG | 1.04 |
| TACGGGTCT | 1.06 |
| TACGGTATGG | 1.1 |
| TACGGTCCTT | 1.06 |
| TACGGTTGGT | 1.03 |
| TACGTAGGTC | 1.03 |

| Sequence | switch fluorescence ratio |
| --- | --- |
| TACGTATGTG | 1.02 |
| TACGTCAGTT | 1.01 |
| TACGTCATAG | 1.16 |
| TACGTCCAAC | 1.15 |
| TACGTGTTTC | 0.985 |
| TACGTTCATG | 0.984 |
| TACGTTCCGT | 1.09 |
| TACGTTGAAC | 1.14 |
| TACTAACAGA | 1.08 |
| TACTAATGCT | 0.996 |
| TACTACTCGT | 1.01 |
| TACTATGCCT | 1.01 |
| TACTCATATG | 1.02 |
| TACTCGTCGG | 1 |
| TACTCGTTGG | 0.983 |
| TACTCTCGAG | 1.02 |
| TACTCTCGTG | 1.03 |
| TACTCTGTCT | 1.01 |
| TACTGAGCGT | 1.06 |
| TACTGAGGGT | 0.981 |
| TACTGATGAA | 1.06 |
| TACTGTGCTT | 0.999 |
| TACTGTTGTG | 1.04 |
| TACTTATCTT | 1.08 |
| TACTTCCGTC | 1.16 |
| TACTTGTTCC | 1.06 |

| Sequence | switch fluorescence ratio |
| --- | --- |
| TACTTTATGC | 1.14 |
| TACTTTTAGC | 1.07 |
| TAGAAATAT | 1.13 |
| TAGAAATTAG | 1.02 |
| TAGAACTACT | 1.04 |
| TAGAAGAGGC | 0.955 |
| TAGAAGGGAG | 0.998 |
| TAGAAGTGGG | 0.972 |
| TAGAATATTA | 1.02 |
| TAGAATCCGA | 1.02 |
| TAGACACGTA | 1.12 |
| TAGACACTTT | 0.989 |
| TAGACAGGC | 0.995 |
| TAGACCGCAT | 1.71 |
| TAGACCGGGG | 1.07 |
| TAGACCTTAC | 3.15 |
| TAGACGACCT | 1.09 |
| TAGACGGAGG | 0.994 |
| TAGACGTG | 1.04 |
| TAGACTACTA | 1.04 |
| TAGACTTTAC | 1.24 |
| TAGAGCGTTT | 0.985 |
| TAGAGGATAG | 0.99 |
| TAGAGGGACG | 1.12 |
| TAGAGGGAG | 0.978 |
| TAGAGGTAG | 0.949 |

| Sequence | switch fluorescence ratio |
| --- | --- |
| TAGAGGTGTA | 1 |
| TAGAGGTTTA | 0.981 |
| TAGAGTATAG | 0.995 |
| TAGAGTCAAT | 1.05 |
| TAGAGTCAGC | 0.979 |
| TAGAGTTAT | 0.963 |
| TAGATACTTA | 1.04 |
| TAGATAGGGC | 1.02 |
| TAGATCGACA | 1.03 |
| TAGATCGCTT | 0.998 |
| TAGATGGATT | 0.984 |
| TAGATGTAAT | 0.943 |
| TAGATTAGGC | 0.957 |
| TAGATTCCGA | 1.01 |
| TAGATTCTAA | 1.04 |
| TAGATTCTTA | 1.02 |
| TAGCAAAC | 4.36 |
| TAGCAAGATG | 1.12 |
| TAGCAAGGAG | 1.13 |
| TAGCAGCGTT | 1.22 |
| TAGCAGGTTG | 1.02 |
| TAGCAGTCTC | 1.24 |
| TAGCATCCAG | 1.03 |
| TAGCATTCCG | 0.975 |
| TAGCCACCGT | 0.998 |
| TAGCCACGAA | 1 |

| Sequence | switch fluorescence ratio |
| --- | --- |
| TAGCCCGTTC | 0.999 |
| TAGCCGACGT | 1.05 |
| TAGCCGCCTC | 1.21 |
| TAGCCGGAAG | 0.984 |
| TAGCGAGTTT | 0.937 |
| TAGCGCAGCC | 0.992 |
| TAGCGCTCCT | 1.03 |
| TAGCGCTGCG | 0.997 |
| TAGCGCTGTA | 0.95 |
| TAGCGGACAG | 1.05 |
| TAGCGGTACG | 0.97 |
| TAGCGGTCT | 1.03 |
| TAGCGGTGCA | 1.03 |
| TAGCGGTGGC | 1.03 |
| TAGCGTTACT | 1.42 |
| TAGCGTTCAC | 0.999 |
| TAGCTAACGC | 0.996 |
| TAGCTACGAC | 1.39 |
| TAGCTCTATT | 0.981 |
| TAGCTGAAGC | 0.995 |
| TAGCTGCAGG | 0.97 |
| TAGCTGGGTT | 0.988 |
| TAGCTTAATT | 1.04 |
| TAGCTTCGTT | 1.12 |
| TAGCTTGGTT | 0.973 |
| TAGCTTGTA | 0.966 |

| Sequence | switch fluorescence ratio |
| --- | --- |
| TAGCTTGTGT | 0.995 |
| TAGCTTTCA | 0.992 |
| TAGCTTTCGC | 0.985 |
| TAGGAACACG | 1.02 |
| TAGGAATAAG | 1.04 |
| TAGGACAGTA | 1.02 |
| TAGGACCATA | 1 |
| TAGGATAGGT | 1.01 |
| TAGGATCACT | 1.01 |
| TAGGCATGCT | 1.03 |
| TAGGCCGGAT | 1.13 |
| TAGGCCGGTA | 0.993 |
| TAGGCCTAC | 1.03 |
| TAGGCCTGAG | 1.03 |
| TAGGCGCCTG | 0.988 |
| TAGGCGTGCA | 1.04 |
| TAGGCTTATT | 1.03 |
| TAGGCTTCGT | 1.05 |
| TAGGGAGTGA | 0.925 |
| TAGGGATCAA | 1 |
| TAGGGGCCCC | 1.01 |
| TAGGGGTGT | 1.33 |
| TAGGGTGGTG | 0.952 |
| TAGGTATCGC | 0.982 |
| TAGGTATCTC | 0.983 |
| TAGGTATTGC | 1.06 |

| Sequence | switch fluorescence ratio |
| --- | --- |
| TAGGTCCATC | 1.05 |
| TAGGTCGAGC | 1 |
| TAGGTTAACA | 1.04 |
| TAGTAAAAGA | 1.06 |
| TAGTAAGAGT | 1.02 |
| TAGTAATCTC | 1.14 |
| TAGTACAAAA | 0.974 |
| TAGTACCCGC | 1.16 |
| TAGTACGGGG | 0.971 |
| TAGTACTCCC | 2.08 |
| TAGTACTGG | 1.05 |
| TAGTACTT | 0.989 |
| TAGTAGGAGA | 1.03 |
| TAGTAGGGCC | 0.975 |
| TAGTAGTTGA | 1.05 |
| TAGTATGTCC | 1.04 |
| TAGTCAAATC | 1.05 |
| TAGTCAGCTG | 0.969 |
| TAGTCCGACA | 1.08 |
| TAGTCCGAGT | 1.01 |
| TAGTCGACAC | 1.03 |
| TAGTCGATAG | 1.01 |
| TAGTCGGGAG | 0.988 |
| TAGTCGGTTG | 1.04 |
| TAGTCGTAGC | 0.982 |
| TAGTCTTCG | 1.09 |

| Sequence | switch fluorescence ratio |
| --- | --- |
| TAGTCTTCGC | 1.15 |
| TAGTGAGCAC | 0.988 |
| TAGTGCCAAC | 0.993 |
| TAGTGCCTCC | 2.81 |
| TAGTGCGCAG | 1.02 |
| TAGTGGAGGT | 1.03 |
| TAGTGGTGTT | 1.03 |
| TAGTGTCCTT | 0.977 |
| TAGTGTGTG | 0.994 |
| TAGTTATATT | 1.01 |
| TAGTTCAATA | 0.989 |
| TAGTTCACTC | 1.02 |
| TAGTTGTATA | 1.01 |
| TAGTTTAGGC | 1.04 |
| TAGTTTGCAA | 1.14 |
| TAGTTTTAAC | 1.02 |
| TAGTTTTCCG | 1.02 |
| TAGTTTTCTC | 0.987 |
| TATAAGACGT | 0.978 |
